Results as given in patent US20240360216A1 (NOVOPROTEIN SCIENTIFIC, published 2024).

Assays:
[1] = molecular target: T1, FC labeled recombinant human CD3E (CP19 Novoprotein) (human, UniProt P07766 23-126); assay: Fortebio (BLI), FC labeled human CD3E (CP19) on protein A sensor, SC30A in gradient dilution
T1 construct: extracellular domain; Bought (Novoprotein CP19); also called recombinant hCD3 protein (CP19, Novoprotein); not shown: Fc label of the bought protein

[2] = molecular target: T2, CD19 on Raji cells (CD19+ tumor cells Raji) (UniProt P15391 20-556, limits assumed); assay: cell-based or functional assay
T2 sequence (looked up): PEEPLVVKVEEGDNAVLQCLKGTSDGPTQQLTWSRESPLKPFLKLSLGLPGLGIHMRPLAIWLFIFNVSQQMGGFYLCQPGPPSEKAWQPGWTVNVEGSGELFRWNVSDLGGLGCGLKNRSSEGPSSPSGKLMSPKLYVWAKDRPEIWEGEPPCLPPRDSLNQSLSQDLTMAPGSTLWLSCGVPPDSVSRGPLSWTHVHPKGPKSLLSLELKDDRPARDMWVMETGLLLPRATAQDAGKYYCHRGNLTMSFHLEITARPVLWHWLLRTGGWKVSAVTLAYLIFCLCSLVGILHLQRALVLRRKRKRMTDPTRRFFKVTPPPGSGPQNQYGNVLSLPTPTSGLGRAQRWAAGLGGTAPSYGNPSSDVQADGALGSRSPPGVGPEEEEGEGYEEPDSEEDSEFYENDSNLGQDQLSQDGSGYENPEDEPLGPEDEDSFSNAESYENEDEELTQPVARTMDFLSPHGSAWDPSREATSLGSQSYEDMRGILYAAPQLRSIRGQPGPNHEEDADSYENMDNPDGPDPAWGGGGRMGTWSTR

[3] = molecular target: T3, FC labeled recombinant human CD19 (C572 Novoprotein) (human, UniProt P15391 20-291); assay: Fortebio (BLI), FC labeled human CD19 (C572) on protein A sensor, SC30A in gradient dilution
T3 construct: Bought (Novoprotein C572); not shown: Fc label of the bought protein
T3 sequence (looked up): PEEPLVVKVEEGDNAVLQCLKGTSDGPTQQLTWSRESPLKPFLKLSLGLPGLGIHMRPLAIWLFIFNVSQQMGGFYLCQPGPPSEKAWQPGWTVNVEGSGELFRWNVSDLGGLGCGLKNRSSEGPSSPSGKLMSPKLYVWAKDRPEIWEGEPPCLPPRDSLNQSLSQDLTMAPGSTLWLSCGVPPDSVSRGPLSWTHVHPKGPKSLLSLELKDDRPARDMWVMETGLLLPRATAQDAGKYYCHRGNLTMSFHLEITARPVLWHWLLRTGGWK

[4] = molecular target: T4, monkey CD3E protein (Examples 4.2 and 7) (monkey, UniProt Q95LI5 22-117); assay: ELISA on monkey CD3E
T4 construct: extracellular domain
T4 sequence (looked up): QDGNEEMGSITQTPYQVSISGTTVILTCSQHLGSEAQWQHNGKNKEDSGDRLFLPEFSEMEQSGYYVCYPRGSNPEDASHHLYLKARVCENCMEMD

[5] = molecular target: T1, FC labeled recombinant human CD3E (CP19 …); assay: ELISA, recombinant hCD3 (CP19) coated on plate, scFv diluted 10 fold from 20 µg/ml
[6] = molecular target: T5, recombinant monkey CD3 protein (CW07, Novoprotein) (monkey, UniProt Q95LI5 22-117); assay: ELISA, recombinant monkey CD3 (CW07) coated on plate, scFv diluted 10 fold from 20 µg/ml
T5 construct: extracellular domain; Bought (Novoprotein CW07)
T5 sequence (looked up): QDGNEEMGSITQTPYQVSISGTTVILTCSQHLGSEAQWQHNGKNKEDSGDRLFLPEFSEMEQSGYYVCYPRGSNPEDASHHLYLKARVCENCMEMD

T1 sequence (P07766 23-126): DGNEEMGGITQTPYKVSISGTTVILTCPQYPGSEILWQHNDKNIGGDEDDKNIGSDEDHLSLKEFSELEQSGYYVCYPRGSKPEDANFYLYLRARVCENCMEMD

B1: Bispecific antibody SC30A of CD3 and CD19 (bispecific antibody)
chain: DIQLTQSPASLAVSLGQRATISCKASQSVDYDGDSYLNWYQQIPGQPPKLLIYDASNLVSGIPPRFSGSGSGTDFTLNIHPVEKVDAATYHCQQSTEDPWTFGGGTKLEIKGGGGSGGGGSGGGGSQVQLQQSGAELVRPGSSVKISCKASGYAFSSYWMNWVKQRPGQGLEWIGQIWPGDGDTNYNGKFKGKATLTADESSSTAYMQLSSLASEDSAVYFCARRETTTVGRYYYAMDYWGQGTTVTVSSGGGGS[in this place about 120 residues]GGGGSGGGGSGGGGSQTVVTQEPSLTVSPGGTVTLTCGSSTGPVTGGNYPNWVQQKPGQAPRGLIGGTKFLAPGTPARFSGSLLGGKAALTLSGVQPEDEAEYYCVLWESNRWVFGGGTKLTVL
notes: Single chain: anti-CD19 scFv (from blinatumomab) - GGGGS - huVH5-(G4S)3-huVL5
- Kd [1]: 1.48 nM
- koff [1]: 0.000474 s⁻¹
- kon [1]: 320000 M⁻¹ s⁻¹
- EC50, Jurkat-NFAT-Luc reporter gene method in the presence of target cells [2]: 0.00136 µg/mL
- Kd [3]: 0.502 nM
- koff [3]: 0.000656 s⁻¹
- kon [3]: 1.31e+06 M⁻¹ s⁻¹
- EC50 [4]: 1.24 µg/mL

B2: Humanized CD3 single chain antibody huVH5VL5 (scFv)
scFv: [in this place about 120 residues]GGGGSGGGGSGGGGSQTVVTQEPSLTVSPGGTVTLTCGSSTGPVTGGNYPNWVQQKPGQAPRGLIGGTKFLAPGTPARFSGSLLGGKAALTLSGVQPEDEAEYYCVLWESNRWVFGGGTKLTVLHHHHHH
- EC50 [5]: 0.364 µg/mL
- EC50 [6]: 0.938 µg/mL
